# Laboratory results: the BET-seq Pho4 binding data (Le et al. 2018)
# Some of the results follow. Values were computed here from the reads of four pooled replicates and scatter widely.
# Target: T1, Pho4 (S. cerevisiae) (UniProt P07270)
# T1 sequence: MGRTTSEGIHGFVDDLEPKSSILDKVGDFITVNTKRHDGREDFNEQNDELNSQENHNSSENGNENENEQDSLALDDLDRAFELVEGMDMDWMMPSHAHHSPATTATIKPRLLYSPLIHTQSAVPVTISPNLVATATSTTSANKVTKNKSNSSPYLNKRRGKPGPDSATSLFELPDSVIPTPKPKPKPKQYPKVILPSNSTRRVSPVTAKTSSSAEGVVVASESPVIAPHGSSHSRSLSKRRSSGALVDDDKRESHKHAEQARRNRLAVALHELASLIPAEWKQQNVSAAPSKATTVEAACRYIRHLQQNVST
# Experiment: relative binding free energy (BET-seq); higher = weaker binding
# Conditions: reference: library average
row,Sequence,relative binding free energy
1,GTCTTCACGTGTATAT,0.22 kcal/mol
2,ACGGTCACGTGTGTAG,-0.02 kcal/mol
3,ATGGGCACGTGTTGGC,-0.13 kcal/mol
4,TTAAACACGTGTGGGG,0.12 kcal/mol
5,TACGGCACGTGAGTAG,0.14 kcal/mol
6,TAGTTCACGTGCAGTG,0.19 kcal/mol
7,GAAGGCACGTGGATGG,-0.12 kcal/mol
8,TTATACACGTGGAGAT,-0.08 kcal/mol
9,ACGGTCACGTGTGGTT,0.1 kcal/mol
10,TGCTACACGTGGAGGA,0.15 kcal/mol
11,CAGTTCACGTGGTTGA,0.1 kcal/mol
12,TTTTACACGTGCTGGG,0.11 kcal/mol
13,ATAGACACGTGGGATT,-0.06 kcal/mol
14,GCGTGCACGTGTCGGA,0.12 kcal/mol
15,GTTAGCACGTGGACGG,-0.02 kcal/mol
16,TCTAACACGTGTTTGG,0.05 kcal/mol
17,TCGGTCACGTGGATTA,0.01 kcal/mol
18,ATTTGCACGTGCAGGT,-0.05 kcal/mol
19,TGTTTCACGTGTTTAG,0.35 kcal/mol
20,TTAGGCACGTGAGGTC,0.21 kcal/mol
21,GTTGTCACGTGGAATG,0.11 kcal/mol
22,CCTGTCACGTGTTGGG,0.08 kcal/mol
23,TGGTCCACGTGGATTG,0.09 kcal/mol
24,ATATTCACGTGGTAAG,0.24 kcal/mol
25,TGTTTCACGTGGGTTA,0.24 kcal/mol
26,TTAGTCACGTGACGTT,0.02 kcal/mol

row,Sequence,relative binding free energy
1,GGATGCACGTGGCAGT,-0.02 kcal/mol
2,GGTTTCACGTGCTTTG,0.2 kcal/mol
3,TTTTGCACGTGGTGGT,0 kcal/mol
4,CGAGACACGTGGAGGG,0.05 kcal/mol
5,TGCATCACGTGGTCGT,-0.05 kcal/mol
6,TTATGCACGTGGCGGA,-0.11 kcal/mol
7,GGAGACACGTGTTGGT,0.06 kcal/mol
8,ATATACACGTGATTAT,0.03 kcal/mol
9,TTAGTCACGTGTGAAT,0.29 kcal/mol
10,AGTGCCACGTGGTTCT,-0.07 kcal/mol
11,TAGTGCACGTGGTAGT,-0.11 kcal/mol
12,GTGGTCACGTGCAGCT,0.07 kcal/mol
13,TGCTTCACGTGTTGAG,0.23 kcal/mol
14,GGATTCACGTGGGCAA,0.24 kcal/mol
15,TGTAGCACGTGGAGTC,0.11 kcal/mol
16,GGTTGCACGTGTGTTT,0.11 kcal/mol
17,AACTGCACGTGCTGGT,0.11 kcal/mol
18,TGTGGCACGTGGACTT,-0.18 kcal/mol
19,TAGGCCACGTGGCGGT,-0.09 kcal/mol
20,TTCGGCACGTGGGGTT,-0.13 kcal/mol
21,AGTTTCACGTGATACG,0.13 kcal/mol
22,CTGGGCACGTGGTTAT,-0.26 kcal/mol
23,ATGCTCACGTGGTTCG,0.23 kcal/mol
24,TCACGCACGTGGGGTT,-0.24 kcal/mol
25,CGTTTCACGTGTGTGT,0.24 kcal/mol
26,TCAATCACGTGATGTG,0.28 kcal/mol

row,Sequence,relative binding free energy
1,GGGTACACGTGAATGG,0.38 kcal/mol
2,GGGGGCACGTGATTGT,0.1 kcal/mol
3,TGGTCCACGTGGTAAG,0.1 kcal/mol
4,CGCGGCACGTGGTAGG,-0.14 kcal/mol
5,GTTTCCACGTGTGGTC,0.15 kcal/mol
6,TGGTTCACGTGATGCA,0.13 kcal/mol
7,TGAGCCACGTGATTGG,0.16 kcal/mol
8,GAATGCACGTGGCTTG,-0.12 kcal/mol
9,AGGGTCACGTGGGCGC,0.02 kcal/mol
10,GTATGCACGTGGGGTG,-0.08 kcal/mol
11,CTGGACACGTGGGTAT,-0.16 kcal/mol
12,AGGATCACGTGCTGTG,0.23 kcal/mol
13,AGAGTCACGTGCTAGG,-0.01 kcal/mol
14,TGAATCACGTGTGTAA,0.3 kcal/mol
15,TTGTTCACGTGCATTG,0.19 kcal/mol
16,CGGGGCACGTGGGTGT,-0.18 kcal/mol
17,GGTTACACGTGGTGGT,0.09 kcal/mol
18,GTGGTCACGTGTATCT,0.02 kcal/mol
19,TTTTACACGTGAAAGT,0.38 kcal/mol
20,TTATTCACGTGTTAAC,0.2 kcal/mol
21,TTTTGCACGTGTAGGG,-0.02 kcal/mol
22,GTTAGCACGTGAGGTT,0.18 kcal/mol
23,TATGCCACGTGTTTGT,-0.11 kcal/mol
24,TTTATCACGTGGTTGC,0.16 kcal/mol
25,ATGGTCACGTGACAGT,0.11 kcal/mol
26,TAGGTCACGTGGGTCT,-0.13 kcal/mol

row,Sequence,relative binding free energy
1,CTGTGCACGTGTGTCT,0.01 kcal/mol
2,TGTGTCACGTGGATGG,-0.01 kcal/mol
3,CAAAACACGTGGGGGG,-0.08 kcal/mol
4,CAAGGCACGTGGTGAT,-0.13 kcal/mol
5,GGCGTCACGTGGGCGA,0.09 kcal/mol
6,ATGCGCACGTGAGGGT,0.1 kcal/mol
7,AATCTCACGTGGTATT,0.15 kcal/mol
8,GGGGGCACGTGGGGTG,-0.16 kcal/mol
9,TTGATCACGTGTTGGC,0.13 kcal/mol
10,GGATGCACGTGTATAT,0.11 kcal/mol
11,GTGAACACGTGGTCGT,-0.01 kcal/mol
12,GGAATCACGTGTTTGA,0.19 kcal/mol
13,GTGTACACGTGGCGTA,-0.04 kcal/mol
14,TTGTACACGTGGGGTG,0 kcal/mol
15,TGGGTCACGTGTTTCT,0.25 kcal/mol
16,TATGACACGTGGGGCG,-0.12 kcal/mol
17,GTTCTCACGTGGGTTA,0.08 kcal/mol
18,TTAGGCACGTGGGGGA,-0.17 kcal/mol
19,GAGGGCACGTGGCGGC,-0.27 kcal/mol
20,TTAGTCACGTGTCGGC,0.1 kcal/mol
21,TTGAGCACGTGGGTCC,-0.22 kcal/mol
22,GGATACACGTGTGGGG,0.22 kcal/mol
23,ATGTACACGTGTTTGG,0.01 kcal/mol
24,TTCCTCACGTGTGTTG,0.09 kcal/mol
25,AGGCTCACGTGGTGTG,0.13 kcal/mol
26,GCGTACACGTGGGTTG,-0.12 kcal/mol

row,Sequence,relative binding free energy
1,GATAGCACGTGTATTG,-0.09 kcal/mol
2,AAATGCACGTGGGATG,-0.07 kcal/mol
3,AGGAACACGTGTTAGT,-0.06 kcal/mol
4,GTCGTCACGTGTTGCG,0.19 kcal/mol
5,TTAATCACGTGAATGG,0.3 kcal/mol
6,TTCGACACGTGGATTT,0.14 kcal/mol
7,AGGTTCACGTGAGGTC,0.28 kcal/mol
8,TTTAGCACGTGGTGAA,-0.18 kcal/mol
9,GTAGCCACGTGTTGTA,-0.05 kcal/mol
10,TCGAGCACGTGAGGTT,0.24 kcal/mol
11,TACGGCACGTGGGCGG,-0.25 kcal/mol
12,TGCGCCACGTGGGTGA,-0.3 kcal/mol
13,GTCTACACGTGGTCTG,0.15 kcal/mol
14,GATGTCACGTGACTGT,0.29 kcal/mol
15,ATACGCACGTGTTTGA,-0.16 kcal/mol
16,TCGTGCACGTGTCGTT,-0.04 kcal/mol
17,GGTGGCACGTGGCCTT,-0.07 kcal/mol
18,ATGGTCACGTGTTGTG,0.13 kcal/mol
19,CATATCACGTGGATGT,0.1 kcal/mol
20,AAATCCACGTGGGGGT,-0.22 kcal/mol
21,TTGTCCACGTGTTTTA,0.14 kcal/mol
22,GGTAGCACGTGGATTT,0.12 kcal/mol
23,ATTGGCACGTGAGCGA,0.06 kcal/mol
24,AATGGCACGTGTGCAT,-0.05 kcal/mol
25,TTTTTCACGTGTCGTA,0.21 kcal/mol
26,CTATTCACGTGGAGTT,0.27 kcal/mol

row,Sequence,relative binding free energy
1,CTTTTCACGTGTAGGA,0.43 kcal/mol
2,GGCTGCACGTGTAGGA,0.07 kcal/mol
3,TGGGCCACGTGTAGGT,-0.03 kcal/mol
4,TTTTCCACGTGTCGGT,0.15 kcal/mol
5,AAGTACACGTGAAGGG,0.2 kcal/mol
6,TAGAGCACGTGATTTT,0.13 kcal/mol
7,CTTGGCACGTGTTCGA,-0.04 kcal/mol
8,GTGCGCACGTGGTGTG,-0.17 kcal/mol
9,TGGGCCACGTGTGCGT,-0.29 kcal/mol
10,AGAGGCACGTGGAGGG,-0.14 kcal/mol
11,CATGTCACGTGTGTCG,0.13 kcal/mol
12,TGGTGCACGTGATTAG,0.12 kcal/mol
13,ATTGTCACGTGAAATA,0.3 kcal/mol
14,TGGTGCACGTGATGAA,-0.01 kcal/mol
15,ACGACCACGTGGGGGG,-0.12 kcal/mol
16,GCTTTCACGTGCTTTG,0.2 kcal/mol
17,GAGGGCACGTGGTTTT,-0.07 kcal/mol
18,TTATCCACGTGGGGCT,-0.06 kcal/mol
19,GGCGTCACGTGTGTGA,0.1 kcal/mol
20,TGAATCACGTGGTGAT,0.15 kcal/mol
21,CTTGCCACGTGGTGTT,-0.12 kcal/mol
22,TTAAGCACGTGTTGGA,-0.1 kcal/mol
23,GCTGACACGTGTTGGT,0.08 kcal/mol
24,AGTTTCACGTGCGGTC,0.34 kcal/mol
25,GGGGTCACGTGAGTTG,0.26 kcal/mol
26,CCGGGCACGTGGCTGG,-0.21 kcal/mol

row,Sequence,relative binding free energy
1,ATAGCCACGTGGTTGT,-0.18 kcal/mol
2,GCAGTCACGTGGTAGT,-0.04 kcal/mol
3,AGAATCACGTGGATGT,0.12 kcal/mol
4,ATGGGCACGTGGTGCT,-0.23 kcal/mol
5,TGCAACACGTGGTGGG,-0.1 kcal/mol
6,GGGTACACGTGATCTT,0.22 kcal/mol
7,ATCGGCACGTGAGTTA,0.15 kcal/mol
8,GTTGTCACGTGTGGGC,0.2 kcal/mol
9,TTAGCCACGTGTGGTT,0.04 kcal/mol
10,TCGTGCACGTGATGGA,0.15 kcal/mol
11,CGAGTCACGTGCGTGG,-0.03 kcal/mol
12,AGGGTCACGTGGCGTA,0.05 kcal/mol
13,AGGGGCACGTGCGTGC,-0.2 kcal/mol
14,GGAAACACGTGGAGTT,0 kcal/mol
15,GGTAACACGTGTTGTA,0.12 kcal/mol
16,TCGTCCACGTGTTTTT,0.28 kcal/mol
17,CGGGTCACGTGGGGAG,0 kcal/mol
18,GTGGGCACGTGGGTGG,-0.1 kcal/mol
19,TGGGACACGTGGGAGC,-0.01 kcal/mol
20,TAGCGCACGTGGTTTT,0.08 kcal/mol
21,AGGTACACGTGGGAAG,-0.12 kcal/mol
22,GAGAACACGTGGTTTG,0.13 kcal/mol
23,CTCGTCACGTGTAGTT,0.02 kcal/mol
24,CGAGGCACGTGTGTGT,-0.13 kcal/mol
25,ATGATCACGTGATGAT,0.25 kcal/mol
26,GGGTCCACGTGGGAGT,-0.21 kcal/mol

row,Sequence,relative binding free energy
1,TGTGGCACGTGAAGCT,0.11 kcal/mol
2,TGTTTCACGTGAATGT,0.39 kcal/mol
3,AGATACACGTGCGTTG,-0.03 kcal/mol
4,TGGAGCACGTGGGACT,-0.14 kcal/mol
5,TGATGCACGTGTATCT,0.09 kcal/mol
6,TCAGCCACGTGGGTTG,-0.1 kcal/mol
7,CATTACACGTGGTTAG,0.14 kcal/mol
8,TATGGCACGTGCCGGG,-0.24 kcal/mol
9,TAATTCACGTGTAGTG,0.2 kcal/mol
10,TGAGCCACGTGTGGTT,-0.06 kcal/mol
11,AGTGTCACGTGGCAAG,0.01 kcal/mol
12,TACGTCACGTGTGGCG,0.09 kcal/mol
13,TAATTCACGTGTGCAG,0.4 kcal/mol
14,GATGGCACGTGGGCAG,-0.19 kcal/mol
15,AGTGTCACGTGGTCGG,0.03 kcal/mol
16,TGTATCACGTGTGAAT,0.17 kcal/mol
17,ATGTACACGTGGGATG,-0.06 kcal/mol
18,TATAGCACGTGGGGCT,-0.13 kcal/mol
19,AGGTCCACGTGAGGTT,0.3 kcal/mol
20,ATTAACACGTGTAGGT,-0.02 kcal/mol
21,GAAATCACGTGAGTTG,0.34 kcal/mol
22,GGTGCCACGTGGGTCG,-0.1 kcal/mol
23,CTGTACACGTGCTGGT,0.07 kcal/mol
24,TGATCCACGTGATGGG,0.08 kcal/mol
25,TGTTACACGTGAGGCT,0.35 kcal/mol
26,TCTTTCACGTGGTCTT,0.18 kcal/mol

row,Sequence,relative binding free energy
1,AGCGCCACGTGTGAGG,-0.04 kcal/mol
2,TGATGCACGTGTGATG,0.09 kcal/mol
3,TTTTTCACGTGTCGCT,0.31 kcal/mol
4,TGGTGCACGTGTTCTC,0.02 kcal/mol
5,GCGGGCACGTGTTATT,-0.02 kcal/mol
6,TGCAGCACGTGGTGTG,-0.07 kcal/mol
7,TATGACACGTGCGTTG,-0.06 kcal/mol
8,TCGTGCACGTGGTCGT,-0.18 kcal/mol
9,GGTATCACGTGCTCTG,0.3 kcal/mol
10,GAGTCCACGTGCGGGT,0.05 kcal/mol
11,CGTGGCACGTGATGTA,-0.06 kcal/mol
12,TTAGCCACGTGGTTTG,-0.18 kcal/mol
13,ACGGGCACGTGTGTGT,-0.1 kcal/mol
14,TATCGCACGTGGGTTG,-0.21 kcal/mol
15,GTAAGCACGTGTGGAG,0.04 kcal/mol
16,TATGGCACGTGTATCT,0 kcal/mol
17,GGTCGCACGTGGCGCG,-0.04 kcal/mol
18,AGGTGCACGTGGCGTT,-0.11 kcal/mol
19,TAGTTCACGTGTTGAC,0.23 kcal/mol
20,GAAAGCACGTGGTTAG,-0.14 kcal/mol
21,TCTAGCACGTGTGGTA,-0.11 kcal/mol
22,GGACTCACGTGGGGGA,0.01 kcal/mol
